{"source": "the supplement of paper PMC8728848", "assay_in_all_cases": "glycan array binding signal (z-score within array); higher = stronger binding", "conditions_in_all_cases": "glycan notation: IUPAC condensed, linker removed", "key": {"Gal4S6S(b1-4)GlcNAc": {"biological_target": "Gal4S6S(b1-4)GlcNAc", "outline": "(§1)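 Glycan array data were curated from 3228 arrays in the Consortium for Functional Glycomics database and kept only where the protein sequence was available. Glycan names were converted to IUPAC-condensed notation, and columns mapping to the same glycan were averaged. The binding signal is a within-array Z-score, averaged across arrays of the same protein sequence at different concentrations or buffers and across linkers. Negative Z-scores can be read as non-binding.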"}, "Gal6S(b1-3)GlcNAc": {"biological_target": "Gal6S(b1-3)GlcNAc", "outline": "as §1"}, "Gal6S(b1-3)GlcNAc6S": {"biological_target": "Gal6S(b1-3)GlcNAc6S", "outline": "as §1"}, "Gal6S(b1-4)Glc": {"biological_target": "Gal6S(b1-4)Glc", "outline": "as §1"}, "Gal6S(b1-4)Glc6S": {"biological_target": "Gal6S(b1-4)Glc6S", "outline": "as §1"}, "Gal6S(b1-4)GlcNAc": {"biological_target": "Gal6S(b1-4)GlcNAc", "outline": "as §1"}, "Gal6S(b1-4)GlcNAc6S": {"biological_target": "Gal6S(b1-4)GlcNAc6S", "outline": "as §1"}, "GalNAc(a1-3)Gal": {"biological_target": "GalNAc(a1-3)Gal", "outline": "as §1"}, "GalNAc(a1-3)GalNAc": {"biological_target": "GalNAc(a1-3)GalNAc", "outline": "as §1"}, "[1]": {"biological_target": "GalNAc(a1-3)GalNAc(a1-3)Gal(a1-4)Gal(b1-4)GlcNAc", "outline": "as §1"}, "[2]": {"biological_target": "GalNAc(a1-3)GalNAc(b1-3)Gal(a1-4)Gal(b1-4)Glc", "outline": "as §1"}, "GalNAc(b1-3)Gal": {"biological_target": "GalNAc(b1-3)Gal", "outline": "as §1"}, "[3]": {"biological_target": "GalNAc(b1-3)Gal(a1-4)Gal(b1-4)GlcNAc", "outline": "as §1"}, "[4]": {"biological_target": "GalNAc(b1-3)Gal(a1-4)Gal(b1-4)GlcNAc(b1-3)Gal(b1-4)Glc", "outline": "as §1"}, "[5]": {"biological_target": "GalNAc(b1-3)Gal(a1-6)Gal(b1-4)Glc", "outline": "as §1"}, "GalNAc(b1-3)GalNAc": {"biological_target": "GalNAc(b1-3)GalNAc", "outline": "as §1"}, "GalNAc(b1-4)GlcNAc": {"biological_target": "GalNAc(b1-4)GlcNAc", "outline": "as §1"}, "[6]": {"biological_target": "GalNAc(b1-4)GlcNAc(b1-2)Man(a1-3)[GalNAc(b1-4)GlcNAc(b1-2)Man(a1-6)]Man(b1-4)GlcNAc(b1-4)GlcNAc", "outline": "as §1"}, "GalNAc(b1-6)GalNAc": {"biological_target": "GalNAc(b1-6)GalNAc", "outline": "as §1"}, "Glc(a1-4)Glc": {"biological_target": "Glc(a1-4)Glc", "outline": "as §1"}, "Glc(a1-6)Glc(a1-6)Glc": {"biological_target": "Glc(a1-6)Glc(a1-6)Glc", "outline": "as §1"}, "Glc(b1-4)Glc": {"biological_target": "Glc(b1-4)Glc", "outline": "as §1"}, "Glc(b1-6)Glc": {"biological_target": "Glc(b1-6)Glc", "outline": "as §1"}, "GlcA(b1-3)Gal": {"biological_target": "GlcA(b1-3)Gal", "outline": "as §1"}, "GlcA(b1-3)GlcNAc": {"biological_target": "GlcA(b1-3)GlcNAc", "outline": "as §1"}, "GlcA(b1-6)Gal": {"biological_target": "GlcA(b1-6)Gal", "outline": "as §1"}, "[7]": {"biological_target": "GlcNAc(a1-3)Gal(b1-4)GlcNAc", "outline": "as §1"}, "[8]": {"biological_target": "GlcNAc(a1-4)Gal(b1-3)GlcNAc", "outline": "as §1"}, "[9]": {"biological_target": "GlcNAc(a1-4)Gal(b1-4)GalNAc", "outline": "as §1"}, "[10]": {"biological_target": "GlcNAc(a1-4)Gal(b1-4)GlcNAc", "outline": "as §1"}, "[11]": {"biological_target": "GlcNAc(a1-4)Gal(b1-4)GlcNAc(b1-3)Gal(b1-4)Glc", "outline": "as §1"}, "[12]": {"biological_target": "GlcNAc(a1-4)Gal(b1-4)GlcNAc(b1-3)Gal(b1-4)GlcNAc", "outline": "as §1"}, "[13]": {"biological_target": "GlcNAc(a1-4)Gal(b1-4)GlcNAc(b1-3)Gal(b1-4)GlcNAc(b1-3)Gal(b1-4)GlcNAc", "outline": "as §1"}, "[14]": {"biological_target": "GlcNAc(a1-4)Gal(b1-4)GlcNAc(b1-3)Gal(b1-4)[Fuc(a1-3)]GlcNAc(b1-3)Gal(b1-4)[Fuc(a1-3)]GlcNAc", "outline": "as §1"}, "[15]": {"biological_target": "GlcNAc(a1-6)Gal(b1-4)GlcNAc", "outline": "as §1"}, "[16]": {"biological_target": "GlcNAc(b1-2)Gal(b1-3)GalNAc", "outline": "as §1"}, "[17]": {"biological_target": "GlcNAc(b1-2)Man(a1-3)[GlcNAc(b1-2)Man(a1-6)]Man(b1-4)GlcNAc(b1-4)GlcNAc", "outline": "as §1"}, "[18]": {"biological_target": "GlcNAc(b1-2)Man(a1-3)[GlcNAc(b1-2)Man(a1-6)]Man(b1-4)GlcNAc(b1-4)[Fuc(a1-6)]GlcNAc", "outline": "as §1"}, "[19]": {"biological_target": "GlcNAc(b1-2)Man(a1-3)[GlcNAc(b1-4)][GlcNAc(b1-2)Man(a1-6)]Man(b1-4)GlcNAc(b1-4)GlcNAc", "outline": "as §1"}, "[20]": {"biological_target": "GlcNAc(b1-2)[GlcNAc(b1-4)]Man(a1-3)[GlcNAc(b1-2)Man(a1-6)]Man(b1-4)GlcNAc(b1-4)GlcNAc", "outline": "as §1"}, "[21]": {"biological_target": "GlcNAc(b1-2)[GlcNAc(b1-4)]Man(a1-3)[GlcNAc(b1-4)][GlcNAc(b1-2)Man(a1-6)]Man(b1-4)GlcNAc(b1-4)GlcNAc", "outline": "as §1"}, "[22]": {"biological_target": "GlcNAc(b1-2)[GlcNAc(b1-4)]Man(a1-3)[GlcNAc(b1-4)][GlcNAc(b1-2)[GlcNAc(b1-6)]Man(a1-6)]Man(b1-4)GlcNAc(b1-4)GlcNAc", "outline": "as §1"}, "[23]": {"biological_target": "GlcNAc(b1-2)[GlcNAc(b1-6)]Man(a1-6)[GlcNAc(b1-2)Man(a1-3)]Man(b1-4)GlcNAc(b1-4)GlcNAc", "outline": "as §1"}, "[24]": {"biological_target": "GlcNAc(b1-2)[GlcNAc(b1-6)]Man(a1-6)[GlcNAc(b1-2)Man(a1-3)][GlcNAc(b1-4)]Man(b1-4)GlcNAc(b1-4)GlcNAc", "outline": "as §1"}, "GlcNAc(b1-3)Gal": {"biological_target": "GlcNAc(b1-3)Gal", "outline": "as §1"}}, "note": "Some of the results follow."}
{"binder": "Tap1 (Sordaria macrospora), Q50IV4 (protein) MSHHHHHHHHYTLHLRLINDTSDTLTLVEQTSWWGKNTIWSQVRSTGVHVLSMAASGSSGMLRFQTSKGDFFAVAVGVHNYKRWCDVLVDTADEAPLTKLHPKYYDDKDAKYQALWAQASEFEAKSKSGKTVRIKFYQADGNVLRATVEYL", "values": [{"measurement": "glycan array binding signal (z-score)", "setting": "Gal4S6S(b1-4)GlcNAc", "result": -0.195}, {"measurement": "glycan array binding signal (z-score)", "setting": "Gal6S(b1-3)GlcNAc", "result": -0.245}, {"measurement": "glycan array binding signal (z-score)", "setting": "Gal6S(b1-3)GlcNAc6S", "result": -0.24}, {"measurement": "glycan array binding signal (z-score)", "setting": "Gal6S(b1-4)Glc", "result": -0.176}, {"measurement": "glycan array binding signal (z-score)", "setting": "Gal6S(b1-4)Glc6S", "result": -0.197}, {"measurement": "glycan array binding signal (z-score)", "setting": "Gal6S(b1-4)GlcNAc", "result": -0.236}, {"measurement": "glycan array binding signal (z-score)", "setting": "Gal6S(b1-4)GlcNAc6S", "result": -0.221}, {"measurement": "glycan array binding signal (z-score)", "setting": "GalNAc(a1-3)Gal", "result": -0.246}, {"measurement": "glycan array binding signal (z-score)", "setting": "GalNAc(a1-3)GalNAc", "result": -0.223}, {"measurement": "glycan array binding signal (z-score)", "setting": "[1]", "result": -0.247}, {"measurement": "glycan array binding signal (z-score)", "setting": "[2]", "result": -0.202}, {"measurement": "glycan array binding signal (z-score)", "setting": "GalNAc(b1-3)Gal", "result": -0.23}, {"measurement": "glycan array binding signal (z-score)", "setting": "[3]", "result": -0.244}, {"measurement": "glycan array binding signal (z-score)", "setting": "[4]", "result": -0.22}, {"measurement": "glycan array binding signal (z-score)", "setting": "[5]", "result": -0.168}, {"measurement": "glycan array binding signal (z-score)", "setting": "GalNAc(b1-3)GalNAc", "result": 1.16}, {"measurement": "glycan array binding signal (z-score)", "setting": "GalNAc(b1-4)GlcNAc", "result": -0.246}, {"measurement": "glycan array binding signal (z-score)", "setting": "[6]", "result": -0.225}, {"measurement": "glycan array binding signal (z-score)", "setting": "GalNAc(b1-6)GalNAc", "result": -0.242}, {"measurement": "glycan array binding signal (z-score)", "setting": "Glc(a1-4)Glc", "result": -0.233}, {"measurement": "glycan array binding signal (z-score)", "setting": "Glc(a1-6)Glc(a1-6)Glc", "result": -0.242}, {"measurement": "glycan array binding signal (z-score)", "setting": "Glc(b1-4)Glc", "result": -0.205}, {"measurement": "glycan array binding signal (z-score)", "setting": "Glc(b1-6)Glc", "result": -0.23}, {"measurement": "glycan array binding signal (z-score)", "setting": "GlcA(b1-3)Gal", "result": -0.223}, {"measurement": "glycan array binding signal (z-score)", "setting": "GlcA(b1-3)GlcNAc", "result": 1.82}, {"measurement": "glycan array binding signal (z-score)", "setting": "GlcA(b1-6)Gal", "result": -0.247}, {"measurement": "glycan array binding signal (z-score)", "setting": "[7]", "result": -0.235}, {"measurement": "glycan array binding signal (z-score)", "setting": "[8]", "result": -0.234}, {"measurement": "glycan array binding signal (z-score)", "setting": "[9]", "result": 0.868}, {"measurement": "glycan array binding signal (z-score)", "setting": "[10]", "result": -0.017}, {"measurement": "glycan array binding signal (z-score)", "setting": "[11]", "result": -0.223}, {"measurement": "glycan array binding signal (z-score)", "setting": "[12]", "result": -0.21}, {"measurement": "glycan array binding signal (z-score)", "setting": "[13]", "result": -0.205}, {"measurement": "glycan array binding signal (z-score)", "setting": "[14]", "result": 0.762}, {"measurement": "glycan array binding signal (z-score)", "setting": "[15]", "result": -0.244}, {"measurement": "glycan array binding signal (z-score)", "setting": "[16]", "result": 2.86}, {"measurement": "glycan array binding signal (z-score)", "setting": "[17]", "result": -0.13}, {"measurement": "glycan array binding signal (z-score)", "setting": "[18]", "result": -0.216}, {"measurement": "glycan array binding signal (z-score)", "setting": "[19]", "result": -0.237}, {"measurement": "glycan array binding signal (z-score)", "setting": "[20]", "result": -0.234}, {"measurement": "glycan array binding signal (z-score)", "setting": "[21]", "result": -0.249}, {"measurement": "glycan array binding signal (z-score)", "setting": "[22]", "result": -0.237}, {"measurement": "glycan array binding signal (z-score)", "setting": "[23]", "result": -0.236}, {"measurement": "glycan array binding signal (z-score)", "setting": "[24]", "result": -0.248}, {"measurement": "glycan array binding signal (z-score)", "setting": "GlcNAc(b1-3)Gal", "result": -0.244}]}
